Data taken from PubChem BioAssay AID624171 (National Center for Advancing Translational Sciences (NCATS), 2012).
Out of some 410,000 compounds screened, about 1,200 (0.29%) were called active. This list was built around the results that the source calls inconclusive (neither active nor inactive); the mix of calls is not that of the screen. Calls follow the shape of the dose curve; as a rule, active = well fitted activation curve with a large enough effect; inconclusive = small, poorly fitted or top-dose-only effect; inactive = flat fitted curve, though single readings scatter. Potencies of inconclusive entries are doubtful fits and often do not repeat.

Test: qHTS of Nrf2 Activators; also: nearly all actives have a fitted effect of over 65% in size; as to activation: % of control where 0% means no effect
Settings: AREc32 ARE-luciferase reporter (MCF7-derived line), luminescence, 24 h; activation: at 46.1 µM (top of the series)
Method in brief: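 Luminescent ARE reporter assay in AREc32_Fluc cells: overnight plating at 37 deg C, 24 hr compound incubation, Steady-Glo added, 30 min RT before reading.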
Potency is read from the fitted curve at half-maximal effect; tags tell the direction and shape of the fitted curve.

Potency, active:
Clc1nnc(NN=C2CCCC2)c2ccccc12 10 µM
COc1ccc(NC(=O)C#Cc2ccccc2)cc1 14.1 µM
COC(=O)c1ccccc1NC(=O)c1ncoc1-c1ccco1 1.12 µM
c1coc(-c2nc3ccccc3nc2-c2ccco2)c1 10 µM
O=C(CC1(O)C(=O)Nc2cc(Cl)cc(Cl)c21)c1ccccc1O (stereo not given) 15.8 µM
Cc1cc(S(=O)(=O)Nc2cc3c(cc2NCc2ccccc2)n(C)c(=O)n3C)ccc1F 12.6 µM

Potency, inconclusive:
c1ccc2sc(Nc3nc4cc5c(cc4s3)OCO5)nc2c1 10 µM [activator, partial curve, poor fit]
Cc1ccc(C(=O)N/C(=C\c2ccccc2F)c2nc(=S)[nH][nH]2)cc1 11.2 µM [activator, partial curve, poor fit]
CCCCCCCN(C(=O)CCl)c1ccccc1C 31.6 µM [activator, single point]
COc1ccc(Cl)cc1NC(=O)COC(=O)c1ccc(Cl)nc1 12.6 µM [activator, single point]
Cc1cc2ccccn2c1C(=O)Nc1ccc(Cl)cc1 3.16 µM [activator, single point]
CS(=O)(=O)c1ccc(C(=O)OCC(=O)NC(=O)C2COc3ccccc3O2)cc1[N+](=O)[O-] (stereo not given) 12.6 µM [activator, single point]
Cc1cc2c(n1-c1ccc(C(=O)NCC(C)c3ccccc3)cc1)CCCC2 (stereo not given) 35.5 µM [activator, single point]
CCc1nn2c(-c3ccco3)ccnc2c1-c1ccc(F)cc1 12.6 µM [activator, partial curve, poor fit]
Cc1ccn2cc(-c3nonc3C)cc2c1 14.1 µM [activator, partial curve, poor fit]
CC(=O)Nc1sc(N/N=C/c2ccccc2F)nc1-c1ccc(C)cc1 17.8 µM [activator, single point]
COc1cccc(-c2nc(-c3ccccc3)no2)c1 3.16 µM [activator, full curve, poor fit]
Cc1ccc(S(=O)(=O)c2ccc([N+](=O)[O-])o2)cc1 3.55 µM [activator, single point]
Cn1c(C(=O)c2ccccc2)nc2ccccc21 17.8 µM [activator, single point]
Cc1cccc(N=Nc2cn[nH]c2-c2ccco2)c1 7.94 µM [activator, partial curve]
COC(=O)[C@@]1(Cc2ccc(F)cc2)[C@@H]2[C@@H](CC(=O)[C@H]2CC(=O)C(=O)N(C)C)CN1C(=O)c1ccccc1 25.1 µM [activator, single point]
O=C(/C=C/c1ccc(O)c(O)c1)c1ccc(S(=O)(=O)N2CCCCCC2)cc1 35.5 µM [activator, single point]
O=C(Nc1ccc(Br)c(C(F)(F)F)c1)c1ccccc1 2.51 µM [activator, full curve, poor fit]
O=[N+]([O-])c1cccc(N=Nc2ccc(O)cc2O)c1 15.8 µM [activator, partial curve, poor fit]
CSc1nnc(C)c(=O)n1COC(=O)/C=C/c1ccc2c(c1)OCO2 25.1 µM [activator, single point]
O=c1cc(CCl)nc(Cc2c(Cl)cccc2Cl)[nH]1 22.4 µM [activator, single point]
Cc1cc(Cl)n2nc(C)c(-c3ccc(Cl)cc3)c2n1 25.1 µM [activator, single point]
Nc1nc(Sc2ccc([N+](=O)[O-])cc2[N+](=O)[O-])n[nH]1 31.6 µM [activator, single point]
O=c1c(-c2ccco2)[n+]([O-])c2ccccc2n1OCc1ccccc1F 1 µM [activator, full curve, poor fit]
O=C(NCCc1ccccc1)c1coc(=O)c(Br)c1 2.82 µM [activator, partial curve, poor fit]
CCCn1c(Sc2nnnn2-c2ccccc2)n[nH]c1=O 14.1 µM [activator, partial curve]
CCSc1nc2ccccc2n1C(=O)/C=C/c1ccc(OC)c(OC)c1 2.82 µM [activator, full curve, poor fit]
COc1cccc(/C=C/C(=O)OCC(=O)N(C)CC(=O)Nc2ccccc2Cl)c1OC 22.4 µM [activator, single point]
O=C(NCc1ccco1)c1cc2sccc2n1Cc1ccc(F)cc1 28.2 µM [activator, single point]
CC(=O)Nc1c([N+](=O)[O-])cc(C)c(Cl)c1[N+](=O)[O-] 20 µM [activator, single point]
C1=C(c2ccc(-c3ccccc3)cc2)Nc2ncnn2C1c1ccco1 (stereo not given) 5.62 µM [activator, partial curve, poor fit]
COc1ccc(NC(=O)/C(Cl)=C(/Cl)S(=O)(=O)Cc2ccccc2)cn1 3.16 µM [activator, partial curve, poor fit]
O=C(O)CC/C(=N\Nc1ccc(Cl)cc1)c1cccs1 6.31 µM [activator, partial curve, poor fit]
CCNc1ccc(Br)cc(C(=O)/C=C/c2ccccc2Cl)c1=O 3.16 µM [activator, partial curve, poor fit]
CC1S/C(=C(\C#N)C(=O)NCc2ccco2)N(Cc2ccco2)C1=O (stereo not given) 17.8 µM [activator, single point]
O=C(CCS(=O)(=O)c1ccc(Cl)cc1)Nc1nnc(-c2ccco2)o1 31.6 µM [activator, single point]
COc1ccc(/C=C2/CCCC(C(=O)C(F)(F)F)=C2O)cc1OC 22.4 µM [activator, single point]
Nc1nc(/C=C/c2ccc(F)cc2)nc(-c2ccccc2O)n1 4.47 µM [activator, partial curve, poor fit]
COc1ccc(C=CC(=O)c2c(OC)cc(OC)c(OC)c2O)cc1 25.1 µM [activator, single point]
O=C(/C=C/c1ccco1)OCC(=O)c1ccc(OC(F)F)cc1 28.2 µM [activator, single point]
CCOC(=O)C1=C(C)c2ccccc2N(C(=O)OC)C1(C)C(=O)OCC (stereo not given) 31.6 µM [activator, single point]
COc1cccc2nc3cc(C)c(C)cc3nc12 3.16 µM [activator, partial curve, poor fit]
COc1ccc(S(=O)(=O)CC(=O)c2cc3cccc(C)c3oc2=O)cc1 15.8 µM [activator, single point]
Oc1c(Cl)cc(Cl)cc1C1=NNC(c2ccc(Cl)cc2)C1 (stereo not given) 12.6 µM [activator, partial curve]
O=c1cc(-c2ccccc2)nc2cc(-c3ccco3)[nH]n12 3.55 µM [activator, partial curve, poor fit]
CC(C)(C)C(=O)/C=c1\[nH]c(=O)/c(=C\c2ccccc2F)s1 2.82 µM [activator, full curve, poor fit]
N/C(=N\OC(=O)Cc1cccs1)c1cccc([N+](=O)[O-])c1 31.6 µM [activator, single point]
CS(=O)(=O)c1nc(-c2ccc(F)cc2)cc(C(F)(F)F)n1 5.62 µM [activator, single point]

activation, inactive:
COc1ccccc1NC(=S)NCCSc1ccc(C)cc1 0.14%
O=[N+]([O-])c1ccc(N=Nc2ccc(O)c3ccccc23)cc1 11.2%
CCc1nc2c(OCC=C(C)C)cccn2c1N(C)C(=O)c1ccc(OC)cc1 2.42%
COc1ccc(NC(=O)C2(C)CCCN(C(C)C)C2)cc1OC (stereo not given) -0.624%
Cc1cc(CN(C)C(=O)c2cc(COc3ccc(F)cc3Cl)on2)n[nH]1 3.25%
Cc1cn[nH]c1 0.0719%
CCN(CC)C(=O)CSc1nc(-c2ccco2)cc(C(F)(F)F)c1C#N -0.642%
Cc1ccc(S(=O)(=O)N2[C@@H](c3cccc(Cl)c3)C(C(=O)O)=CC[C@H]2c2ccc(Cl)cc2)cc1 0.0231%
Cc1ccnc(NC(=O)CCc2c[nH]c3ccccc23)c1 1.8%
CC(C)c1ccc(S(=O)(=O)Nc2ccc3c(c2)OCO3)cc1 -0.131%
Cc1ccc(-n2c(=O)c3cccnc3n2CC(=O)Nc2ccc(Br)cc2)cc1C 3.44%
Cc1cccc(Cl)c1NC(=O)N1CCCN(c2ncccc2[N+](=O)[O-])CC1 0.171%
COc1ccc(N2CCN(CCNS(=O)(=O)c3cccc4nsnc34)CC2)cc1 0.465%
CCN(CC)S(=O)(=O)c1ccc(NC(=O)c2ccc3c(=O)n4c(nc3c2)CCCCC4)cc1 0.351%
COCCNc1nc2ccccc2nc1NS(=O)(=O)c1ccc(C)cc1C 3.34%
Fc1ccc2cc(CCO[C@H]3CCCCO3)ncc2c1 -2.94%
Cc1ccc(C)c(OCc2ccc(C(=O)NN)o2)c1 0.0527%
